# Among all 150,000 compounds or so, about 180 (0.12%) were called active. This list was built around the results that the source calls inconclusive (neither active nor inactive); the mix of calls is not that of the screen. Calls come from the whole dose curve; as a rule, active = well fitted cell-killing curve with a large enough effect; inconclusive = small, poorly fitted or top-dose-only effect, or effect the other way; inactive = flat fitted curve, though single readings scatter. Potencies beside an inconclusive call are fits to weak or partial responses and may not hold up.
# Assay: GF-AFC viability counterscreen for inhibitors of alpha-synuclein gene (SNCA) expression; note: nearly all actives have a fitted effect of over 30% in size;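 for activity change, negative = cytotoxicity: 0% = DMSO-treated cells and -100% = medium-only wells without cells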
# Details: HEK-293-SNCA-luc viability, GF-AFC fluorescence, 24 h; activity change, negative = cytotoxicity: at 57.1 µM (top of the series) unless noted
# Summary of the method: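 Cytotoxicity counterscreen: after 24 h compound treatment of genome-edited SNCA-luciferase HEK-293 cells, live-cell protease substrate GF-AFC read by fluorescence after 30 min; activity scaled between DMSO (0%) and medium-only (-100%), curves Hill-fitted.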
# Potency is the fitted concentration of half-maximal effect; tags give direction and shape of the fitted curve.
Structure (SMILES),"activity change, negative = cytotoxicity",Potency
CC1(C(=O)N2CC=C(c3ccccc3)CC2)CCCCC(=O)N1 (stereo not drawn),inactive: 6.4%,–
CCCS(=O)(=O)N1CCc2nc(N3CCN(C)CC3)sc2C1,inactive: 11.4%,–
N#Cc1cccc(-c2cn3c(n2)N(C(=O)c2ccsc2)CCC3)c1,inactive: 3.12%,–
Cn1cnc(S(=O)(=O)N2CCC(Oc3ccc(-c4noc(C5CC5)n4)cc3)C2)c1 (stereo not drawn),inactive: 1.95%,–
O=C(CC[C@@H]1CNC(=O)[C@@H]2C[C@H](NC(=O)c3cccc(F)c3)CN12)NCc1ccc(F)cc1,inactive: -3.24%,–
O=C(CN1C(=O)COc2ccc(S(=O)(=O)N3CCCCCC3)cc21)NCCc1ccccc1,–,"inconclusive: 20 µM [cytotoxic, partial curve]"
CCCCN(C)C(=O)c1ccc2c(c1)N(Cc1ccc(F)cc1)C(=O)c1ccccc1S2(=O)=O,–,"inconclusive: 14.1 µM [cytotoxic, partial curve, poor fit]"
CC(=O)N1CCOc2cc(S(=O)(=O)Nc3c(C)cccc3C(C)C)c(Cl)cc21,–,"inconclusive: 35.5 µM [cytotoxic, partial curve, poor fit]"
COc1cccc(Nc2ncc3c(n2)C(C)(C(=O)Nc2ccc(OC)nc2)CC3)c1 (stereo not drawn),inactive: -26.5% [at 87.6 µM],–
CCc1ccccc1NC(=O)C(CC)Oc1ccccc1-c1nnc(-c2ccccc2)o1 (stereo not drawn),–,"inconclusive: 10 µM [cytotoxic, partial curve, poor fit]"
Nc1nc(F)nc2c1ncn2[C@@H]1O[C@H](CO)[C@@H](O)[C@@H]1O,–,"inconclusive: 2.71 µM [cytotoxic, full curve]"
Cc1cc(C)cc(-c2ccc(CN3CCCC3C(=O)NCc3ccc(F)cc3)cc2)c1 (stereo not drawn),inactive: -11.1%,–
COc1ccc(S(=O)(=O)NCCc2sc3nc(-c4ccc(C)cc4)nn3c2C)cc1F,–,"inconclusive: 14.1 µM [cytotoxic, partial curve, poor fit]"
COc1ccc(-c2cc(C)no2)cc1S(=O)(=O)NC1CCC(C)CC1 (stereo not drawn),–,"inconclusive: 39.8 µM [cytotoxic, single point]"
O=C(CCC1CCCC1)NCc1nnc2c(-c3nc(C4CC4)no3)cccn12,inactive: -0.134%,–
COc1ccc(Cl)cc1NC(=O)NCCc1c(C)nn(C)c1C,–,"inconclusive: 39.8 µM [rising, single point]"
O=C1[C@@H]2C[C@@H](CN2Cc2ccccc2)Oc2ccccc2N1Cc1ccccc1,inactive: -16.7% [at 87.6 µM],–
CC1CCN(C(=O)Cn2c(=O)n(CC3CCC(C(=O)NC(C)C)CC3)c(=O)c3sccc32)CC1 (stereo not drawn),–,"inconclusive: 3.55 µM [cytotoxic, partial curve, poor fit]"
O=C(CN1C(=O)C2(CCNCC2)Nc2ccccc21)NC1CCCCCC1,–,"inconclusive: 2.51 µM [cytotoxic, full curve, poor fit]"
CC(C)(C)OC(=O)N1CCC(c2c(C(=O)NCc3cccc(Cl)c3)cnn2-c2ccc(F)cc2)CC1,–,"inconclusive: 39.8 µM [cytotoxic, single point]"
CC1C(=O)Nc2ccc(S(=O)(=O)N3CCCCC3)cc2NC1=O (stereo not drawn),–,"inconclusive: 10 µM [rising, partial curve, poor fit]"

Structure (SMILES),"activity change, negative = cytotoxicity",Potency
COc1ccc(-c2cc(C(=O)Nc3c(C(=O)c4ccc(C)cc4)oc4ccccc34)no2)cc1,–,"inconclusive: 20 µM [rising, partial curve, poor fit]"
CCOC(=O)c1ccc(N2C(=O)c3[nH]nc(-c4ccccc4)c3C2c2ccc(CC)cc2)cc1 (stereo not drawn),–,"inconclusive: 4.47 µM [cytotoxic, partial curve, poor fit]"
COc1ccc(NC(=O)Cn2c(=O)n(-c3ccc(F)cc3)c(=O)c3c2cc(C)n3C)cc1,–,"inconclusive: 4.47 µM [cytotoxic, partial curve, poor fit]"
O=C(Nc1ccccc1)N1CCC(C(=O)N2CCCC2c2nc3ccncc3[nH]2)CC1 (stereo not drawn),inactive: 6.91%,–
CCOC(=O)c1ccc(N2C(=O)c3n[nH]c(-c4cccs4)c3C2c2ccc(OCC)cc2)cc1 (stereo not drawn),–,"inconclusive: 17.8 µM [cytotoxic, single point]"
COc1cc(OC)cc(C(=O)N2CCC(Cc3nc(-c4ccccc4)no3)CC2)c1,inactive: -2.38%,–
CC(C)(C)c1nc(C(=O)NCCc2ccc(Cl)cc2)n2ccncc12,inactive: -17%,–
COc1cccc(-n2c(=O)c3c(C)c(C)sc3n(CC(=O)NCCc3ccc(OC)c(OC)c3)c2=O)c1,–,"inconclusive: 0.501 µM [cytotoxic, full curve, poor fit]"
COc1ccc(CCc2nc3nccc(-c4cccs4)n3n2)cc1OC,–,"inconclusive: 39.8 µM [cytotoxic, single point]"
O=C1[C@H]2CN(Cc3ccc(Cl)cc3)C[C@H]2C(=O)N1Cc1ccc2c(c1)OCO2,–,"inconclusive: 39.8 µM [cytotoxic, partial curve, poor fit]"
Cc1ccccc1Nc1cc(C(=O)NCCCN2CCN(c3cccc(Cl)c3)CC2)c2ccccc2n1,–,"inconclusive: 20 µM [cytotoxic, partial curve, poor fit]"
Cc1cc(Cl)ccc1-c1ccc(CN)cc1,–,"inconclusive: 56.2 µM [cytotoxic, single point]"
Fc1ccc(F)c(CN2CCC(Oc3ccccc3-c3nc(C4CCOCC4)no3)C2)c1 (stereo not drawn),–,"inconclusive: 22.4 µM [cytotoxic, single point]"
O=Nc1c(-c2c(O)[nH]c3ccccc23)[nH]c2ccccc12,–,"inconclusive: 15.8 µM [cytotoxic, partial curve]"
COCCN(Cc1cccs1)S(=O)(=O)c1cc(-c2cc(C)no2)ccc1C,inactive: -4.46%,–
Cc1ccc(-c2ccc3nnc(CNC(=O)c4ccc(Cl)cc4)n3n2)cc1,inactive: -7.4%,–
O=C(COc1ccc(F)cc1)N1CC(c2nc(CCOCC3CCOCC3)no2)C1,–,"inconclusive: 6.31 µM [cytotoxic, single point]"
Cc1noc(-c2ccc3c(c2)OCO3)c1C(=O)N1CCC(Cc2ccccc2)CC1,–,"inconclusive: 3.55 µM [cytotoxic, single point]"
COc1ccc(C(=O)NC2CCN(c3cnn(CC4CC4)c(=O)c3)CC2)c(OC)n1,–,"inconclusive: 3.98 µM [cytotoxic, full curve]"
Cn1ncc2c(C(=O)N3CCOCC3)cc(-c3ccc(Cl)cc3)nc21,inactive: -4.89%,–
COc1ccccc1OCC(=O)c1ccc2c(c1)N(CCCC(=O)N1CCOCC1)C(=O)CO2,–,"inconclusive: 1 µM [cytotoxic, full curve, poor fit]"

Structure (SMILES),"activity change, negative = cytotoxicity",Potency
Cn1cc(CN2CCCC(COc3ccccc3C(=O)NC3CC3)C2)c2ccccc21 (stereo not drawn),–,"inconclusive: 1.41 µM [cytotoxic, full curve, poor fit]"
CC(C)Cn1c(=O)c(C(=O)NCc2ccc3c(c2)OCO3)nc2cccnc21,–,"inconclusive: 1 µM [rising, full curve]"
CCN1CCN(Cc2cn(-c3ccccc3F)nc2-c2cc(C)sc2C)CC1,–,"inconclusive: 39.8 µM [cytotoxic, single point]"
COc1ccc(S(=O)(=O)N2CCCN(CC(=O)Nc3ccc(OC)cc3OC)CC2)cc1,–,"inconclusive: 14.1 µM [cytotoxic, partial curve, poor fit]"
COc1cccc(-c2ccc3c(N)c(C(=O)Nc4cc(C(F)(F)F)ccc4OC)sc3n2)c1,–,"inconclusive: 1.78 µM [rising, full curve, poor fit]"
O=C(Cc1ccccc1)NCC1CN(Cc2ccc3[nH]ccc3c2)CC12CN(c1ccccc1)C2 (stereo not drawn),inactive: -15.8%,–
Cn1cc(CN2C[C@H](C(=O)Nc3ccc(F)cc3)C[C@H]2c2cccc(C(F)(F)F)c2)cn1,–,"inconclusive: 28.2 µM [cytotoxic, single point]"
Cc1cccc(C)c1OCCCn1c(CCNC(=O)C2CCCCC2)nc2ccccc21,–,"inconclusive: 39.8 µM [cytotoxic, single point]"
COc1ccc(Cn2c3c(c(=O)n2Cc2ccccc2)CCN(C(=O)c2nc4ccccc4[nH]2)C3)cc1,–,"inconclusive: 17.8 µM [cytotoxic, partial curve, poor fit]"
COc1cccc(Nc2ncc3c(n2)C(C)(C(=O)Nc2nc(C)cs2)CC3)c1 (stereo not drawn),inactive: -15.1% [at 87.6 µM],–
CNC(=O)[C@H](CC1=CN=C2C=CCC=C12)NC(=O)[C@@H](CC(=O)NO)CC(C)C,–,"inconclusive: 2.71 µM [cytotoxic, full curve]"
Cc1cccc(-n2c(=O)c3c(c4cc(C)ccc4n3C)n(CC(=O)N3CCCC3)c2=O)c1,–,"inconclusive: 1 µM [cytotoxic, full curve, poor fit]"
CC(C)CCN1CC[C@@H]2OCC(=O)N(Cc3c[nH]c4ccccc34)[C@H]2CC1,inactive: 2.84% [at 87.6 µM],–
COc1ccc(N2CCN(CCCNC(=O)c3cc(Nc4ccc(OC)cc4OC)nc4ccccc34)CC2)cc1,–,"inconclusive: 25.1 µM [cytotoxic, partial curve, poor fit]"
O=C(c1ccccc1F)N1CCCC2(C1)NC(=O)N(Cc1ccc(Cl)cc1)C2=O (stereo not drawn),inactive: 3.18%,–
O=C([C@H]1CCCN1C(=O)Cc1ccccn1)N1CCC(N2CCOC2=O)CC1,inactive: 3.02%,–
Cc1cc(OCCCS(C)(=O)=O)cc(C)c1-c1cccc(COc2ccc(C3=CC(=O)NS3=O)cc2)c1 (stereo not drawn),inactive: 8.21%,–
Fc1ccccc1Cc1cn2cc(-c3ccc(Cl)cc3)nc2s1,inactive: -0.67%,–
CCC(=O)N1CCCc2cc(S(=O)(=O)N3CCC(C(=O)NC4CCCCC4)CC3)ccc21,–,"inconclusive: 0.282 µM [rising, full curve, poor fit]"
COC(=O)C1=C(C)NC(C)=C(C(=O)OC)C1c1cccc(NC(=O)NCCCN2CCC(c3cccc(OC)c3)CC2)c1,–,"inconclusive: 37.7 µM [cytotoxic, single point]"
O=C(NCc1cccc(F)c1)c1cc2c(s1)CCN(C(=O)c1ccccc1)C2,–,"inconclusive: 35.5 µM [cytotoxic, single point]"

# — PubChem BioAssay AID1671193 (National Center for Advancing Translational Sciences (NCATS), 2021)
